This note sets out measurements from patent publication US8829203B2, “3′,6-substituted indirubins and their biological applications” (Centre National de la Recherche Scientifique (CNRS), priority 2008, dated 2014).

Counter-ions that a name gives are not always drawn. Like-named read-outs stand apart in the source and are kept apart here. A value given as a limit tells only on which side of the number the result lay.

The test system of assay [1] is SH-SY5Y neuroblastoma cells. Put plainly: cells. To be noted: Homo sapiens, 48 h, read-out: SH-SY5Y cell survival IC50, 48 h incubation, MTS reduction.
In assay [2] the test system is SH-SY5Y neuroblastoma cells. To be noted: read-out: SH-SY5Y cell survival IC50; 48 h incubation, MTS reduction. (In general: Tetrazolium assays rely on reduction of a dye to a coloured formazan, in cell work by metabolically active cells.)

With `O=C1Nc2cc(Br)ccc2/C1=C1/Nc2ccccc2/C1=N\OCCBr` [Cpd 1, (2′Z-3′E)-6-Bromoindirubin-3-[O-(2-bromoethyl)-oxime]], the IC50 – broadly, the concentration at which inhibition is half-maximal – in assay [1] was greater than 100 µM.
As for `COCCN1CCN(CCO/N=C2/C(=C3/C(=O)Nc4cc(Br)ccc43)Nc3ccccc32)CC1` [Cpd 25], the IC50 in assay [2] was greater than 100 µM.
Regarding `O=C1Nc2cc(Br)ccc2/C1=C1/Nc2ccccc2/C1=N\OCCN1CCCC1` [Cpd 7, (2′Z-3′E)-6-Bromoindirubin-3′-[O-(2-pyrrolidin-1-ylethyl)oxime]], the IC50 in assay [1] turned out to be 5.5 µM.
As for `CCN(CC)C(=O)O/N=C1/C(=C2/C(=O)Nc3cc(Br)ccc32)Nc2ccccc21` [Cpd 4, (2′Z-3′E)-6-Bromoindirubin-3′-[O-(N,N-diethylcarbamyl)-oxime]], the IC50 in assay [1] is greater than 100 µM.
In the case of `O=C1Nc2cc(Br)ccc2/C1=C1/Nc2ccccc2/C1=N\OCCO` [Cpd 2, (2′Z-3′E)-6-Bromoindirubin-3′-[O-(2-hydroxyethyl)-oxime]], the IC50 in assay [1] is greater than 100 µM.
For the molecule `O=C1Nc2cc(Br)ccc2/C1=C1/Nc2ccccc2/C1=N\OCC(O)CO` (stereo not drawn) [Cpd 3, (2′Z-3′E)-6-Bromoindirubin-3′-[O-(2,3-dihydroxypropyl)-oxime]], the IC50 in assay [1] was determined as 0.94 µM.
For the molecule `CN1CCN(CCO/N=C2/C(=C3/C(=O)Nc4cc(Br)ccc43)Nc3ccccc32)CC1` [Cpd 23, (2′Z-3′E)-6-Bromoindirubin-3′-{O-[2-(4-methylpiperazin-1-yl)ethyl]oxime}Dihydrochloride], the IC50 in assay [2] worked out at 5.4 µM.
As to `O=C1Nc2cc(Br)ccc2/C1=C1/Nc2ccccc2/C1=N\OCCN1CCCC1` [Cpd 18, (2′Z-3′)-6-Bromoindirubin-3′-[O-(2-pyrrolidin-1-ylethyl)oxime]Hydrochloride], the IC50 in assay [2] came out at 4.2 µM.
The same measure, in the same setting: the value for `O=C1Nc2cc(Br)ccc2/C1=C1/Nc2ccccc2/C1=N\OCCN1CCN(CCOCCO)CC1` [Cpd 15, (2′Z-3′E)-6-Bromoindirubin-3′-[O-(2-{4-[2-(2-hydroxyethoxy)-ethyl]piperazin-1-yl}ethyl)oxime]] was 94.4 µM.
With `CN(CCON=C1C(=C2C(=O)Nc3cc(Br)ccc32)Nc2ccccc21)CC(O)CO` (stereo not drawn) [Cpd 21], the IC50 in assay [1] was 6 µM.
Regarding `CCN(CC)CCO/N=C1/C(=C2/C(=O)Nc3cc(Br)ccc32)Nc2ccccc21` [Cpd 6, (2′Z-3′E)-6-Bromoindirubin-3′-[O-(2-diethylaminoethyl)-oxime]], in assay [1], the half-inhibitory concentration (IC50) stood at 78 µM.
Regarding `CN(CCO/N=C1/C(=C2/C(=O)Nc3cc(Br)ccc32)Nc2ccccc21)CC(O)CO` (stereo not drawn) [Cpd 10, (2′Z-3′E)-6-Bromoindirubin-3′-(O-{2-[-methyl, N-(2,3-dihydroxypropyl)amino]ethyl}oxime]], in assay [1], the IC50 stood at 5.8 µM.
As for `CN1CCN(CCO/N=C2/C(=C3/C(=O)Nc4cc(Br)ccc43)Nc3ccccc32)CC1` [Cpd 12, (2′Z-3′E)-6-Bromoindirubin-3′-{O-[2-(4-methyl-piperazin-1-yl)ethyl]oxime}], in assay [1], the IC50 came to 5.4 µM.
Regarding `O=C1Nc2cc(Br)ccc2/C1=C1/Nc2ccccc2/C1=N\OCCN1CCNCC1` [Cpd 22, (2′Z-3′E)-6-Bromoindirubin-3′-[O-(2-piperazine-1-ylethyl)oxime]Dihydrochloride], in assay [2], the IC50 is 5.9 µM.
Still for that read-out and setting: the figure for `CCN(CC)CCO/N=C1/C(=C2/C(=O)Nc3cc(Br)ccc32)Nc2ccccc21` [Cpd 17, (2′Z-3′E)-6-Bromoindirubin-3′-[O-(2-diethylaminoethyl)oxime]Hydrochloride] is greater than 100 µM.
